From PubChem BioAssay AID256 (DTP/NCI, 2004)
Inconclusive results and toxic doses are left out. Not every entry of the source has a single result; some have several. They are shown here; other results are not. The source may hold further records. Values given together differ, and nothing given here explains why; they may come from other doses, times, organisms or constructs than stated.

System: CD2F1 mice, L1210 leukemia ip, survival T/C
Test: NCI In Vivo Anticancer Drug Screen. Data for tumor model L1210 Leukemia (intraperitoneal) in CD2F1 (CDF1) mice
Conditions: endpoint: median survival time; dose: 8.0 mg/kg/injection; schedule: Q01DX009 (ip); vehicle: saline; higher = longer survival
Summary of the method: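 Ratio T/C, where T is the treated-group value and C the vehicle-dosed control value, from mice implanted with a transplantable tumor.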

N[C@H](C(=O)O)[C@@H]1CC(Cl)=NO1
T/C: 98 % of control and 166 % of control
